Measured values reported in publication PMC5695864.

Legend:
[1] = target: S2G2-rituximab (28), non-fucosylated sialyl complex type glycoform of rituximab (human); experiment: SPR
[2] = target: GlcNAc-rituximab (27) (human); experiment: SPR

## FcγRIIIA-V158 (sequence not shown) (receptor; modification not given; non-fucosylated sialylated biantennary complex type N-glycan (S2G2) at Asn-297)
[1]
  Kd: 2.2 nM

## FcγRIIIA-V158 (sequence not shown) (receptor; modification not given; only the innermost GlcNAc at Asn-297 (no fucose))
[2]
  Kd: 784 nM
